# The full ranking holds about 33,000 sequences; the median of “E-score (-0.5 to 0.5)” is about -0.043, and the highest 2% start at about 0.37. The list shows a part of the results.
# Target: T1, Upc2 (UniProt Q12151)
# T1 sequence: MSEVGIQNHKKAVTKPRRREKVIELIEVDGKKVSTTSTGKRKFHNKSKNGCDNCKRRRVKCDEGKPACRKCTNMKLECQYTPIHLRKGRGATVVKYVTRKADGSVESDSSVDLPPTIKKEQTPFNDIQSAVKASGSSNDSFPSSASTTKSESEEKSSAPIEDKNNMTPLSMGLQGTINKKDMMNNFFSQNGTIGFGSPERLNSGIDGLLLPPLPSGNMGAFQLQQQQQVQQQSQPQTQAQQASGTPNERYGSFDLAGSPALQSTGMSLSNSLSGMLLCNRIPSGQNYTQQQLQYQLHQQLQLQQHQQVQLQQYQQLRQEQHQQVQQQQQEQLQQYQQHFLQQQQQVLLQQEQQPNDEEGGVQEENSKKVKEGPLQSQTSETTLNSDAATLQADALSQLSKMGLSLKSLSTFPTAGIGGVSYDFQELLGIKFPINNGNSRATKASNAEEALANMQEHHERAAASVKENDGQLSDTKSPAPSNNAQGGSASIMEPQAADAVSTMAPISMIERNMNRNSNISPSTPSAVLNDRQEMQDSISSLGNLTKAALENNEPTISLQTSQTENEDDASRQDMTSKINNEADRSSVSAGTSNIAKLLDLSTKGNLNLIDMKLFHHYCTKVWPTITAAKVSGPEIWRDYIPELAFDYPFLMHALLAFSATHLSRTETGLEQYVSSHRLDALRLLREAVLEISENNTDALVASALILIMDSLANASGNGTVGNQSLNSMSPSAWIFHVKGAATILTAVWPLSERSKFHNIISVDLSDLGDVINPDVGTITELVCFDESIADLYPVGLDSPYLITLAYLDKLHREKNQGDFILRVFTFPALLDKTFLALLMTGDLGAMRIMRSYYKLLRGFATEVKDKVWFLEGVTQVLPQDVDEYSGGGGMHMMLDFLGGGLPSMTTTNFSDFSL
# Assay: PBM E-score (8-mer binding enrichment) (E-score (-0.5 to 0.5)); higher = stronger / more preferred TF binding; most listed sequences are background and not binding sites
# Conditions: protein concentration: 200 nM; construct: GST-full length
# Procedure, shortened: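 Detection of bound protein used fluorescent anti-GST, with scans normalised by masliner. The proteins were GST-tagged yeast transcription factors applied at about 100-200 nM to universal all-10-mer Agilent arrays made double-stranded by primer extension. Each ungapped eight-base word, pooled with its reverse complement, was scored with an E-score from the Universal PBM Analysis Suite.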
row,Sequence,PBM E-score
1,GGCGGATA,0.0878
2,AGATTAGG,-0.13
3,CGTGCGTA,0.297
4,GCCAACCA,-0.047
5,AGCCGGAA,0.0207
6,ATAGCTTC,0.0782
7,GATACTAC,-0.0465
8,CTCGGGTC,0.183
9,AGGAGGCC,-0.196
10,GAATATAA,-0.013
11,CGGTAATA,-0.0285
12,CCTCTCCG,-0.305
13,AGTGACAA,-0.0211
14,AGTAGGCA,-0.067
15,ACGACTCG,0.381
16,TCACGACA,-0.138
17,TTACGAAA,0.41
18,AAGCCATT,0.0665
19,AACTATTG,-0.208
20,AGTAACCC,0.0454
21,CCCAAAGC,-0.0599
22,CAGGTAAC,-0.0313
23,CGTATCTA,0.315
24,ACAGAAAC,0.0673
25,CCCTCAAC,-0.0664

row,Sequence,PBM E-score
1,CGATATCG,0.244
2,AGATGAGG,-0.247
3,AGGAGTGC,-0.126
4,GAAACCTC,0.0387
5,AAGAAAGA,-0.0388
6,CTAGAAAC,-0.0776
7,GGTGCCGA,-0.141
8,ACGGTCGG,0.23
9,TGATCGCA,-0.0419
10,ATCTGACA,-0.26
11,AGCTCTCG,0.236
12,CCATGTAG,-0.267
13,AATGCCCT,-0.198
14,GGTTCTCA,-0.0314
15,CACTTCGG,-0.0606
16,AGTGGCAG,-0.308
17,ATTATATG,-0.0794
18,CTCAATGA,-0.233
19,CCCCGTAG,0.0355
20,CGTGCGAC,0.14
21,TAGGACCA,-0.175
22,CATCCAAA,0.0148
23,GTCCGGGA,-0.0586
24,ATAATTCC,-0.0203
25,ACCTACCC,0.0163

row,Sequence,PBM E-score
1,ATCTCACA,-0.155
2,CCAATATC,-0.149
3,CCTCACGA,-0.219
4,TGCGAAAA,0.0864
5,TAACATTA,0.0099
6,AGCAAAGC,-0.229
7,CCAGCCAC,-0.133
8,ATTATTGA,-0.157
9,GAGCCTAC,-0.254
10,ATGAAACG,0.206
11,CCCCGTAA,0.308
12,GAAAAGTC,0.0928
13,AAGAGAGG,-0.149
14,AAATGTTG,-0.0204
15,TACATGGA,-0.101
16,AGAATGCT,-0.215
17,CCTCTCAG,-0.352
18,GACTCCGC,-0.153
19,GGCGCTAA,-0.151
20,CTTTGCAA,-0.0879
21,ACCGGAAC,0.171
22,ACCCGTTG,-0.231
23,AGACGTTG,0.0271
24,AGTAGTTC,-0.0348
25,CAAGCGCC,-0.157

row,Sequence,PBM E-score
1,CACAGGAC,-0.264
2,AGGGTTGC,-0.0148
3,ACTTTAGG,-0.0353
4,AAATCGAT,-0.00745
5,GTCGGGCA,-0.287
6,ACCTAGAG,0.0197
7,AATTAATA,0.0716
8,ATAATATA,0.114
9,ATCACGTG,0.0327
10,CGCTCCAG,0.149
11,GAGTGCGC,-0.117
12,ATATGATA,0.104
13,TCAGAGCA,-0.0899
14,AAATTCCA,-0.124
15,GCACGGCA,-0.1
16,GGGAGGTA,0.132
17,ACTCAAAT,0.0429
18,ACAACAAC,0.0996
19,GACTTAAC,0.00959
20,ACGCTGTG,0.0374
21,AGGTGTCG,0.0238
22,CTGGCCCA,-0.336
23,AGCCGCTA,-0.0668
24,CATCAGGA,0.0755
25,AGACACCC,-0.0928

row,Sequence,PBM E-score
1,AATCAAGC,-0.0523
2,CAACTTAC,-0.08
3,CCGGCTTC,-0.14
4,GAGGGTGC,-0.184
5,AAGTTGAT,-0.058
6,CCTCTCTC,-0.0681
7,ACTGATGC,0.0136
8,AGTGTCTG,-0.0961
9,CATAATCA,0.0447
10,TCGTGCAA,0.136
11,CGCATGAC,-0.0746
12,ACTTATTC,-0.0293
13,ACCCGGTC,-0.174
14,AAGCTTCG,0.145
15,ATTGTTAA,0.0613
16,CACCGCTA,-0.0668
17,CTGTTAAG,-0.1
18,GTCGATTA,0.256
19,TCACGTAA,0.0344
20,CGGCCAAA,-0.011
21,TCCATGAA,-0.0219
22,CGAGCAAC,0.197
23,GGTTACCA,0.156
24,GCCCCCGC,-0.158
25,ACGGCCAT,-0.00781

row,Sequence,PBM E-score
1,GACGCTGA,-0.125
2,GCTTGACA,-0.215
3,AACTGTGT,-0.137
4,AGCAAGCA,-0.103
5,ACGCGGAT,0.202
6,ATTTCCCG,0.0793
7,TAGAGGAA,-0.115
8,ATCACGCA,-0.15
9,AAAGCGCT,0.127
10,GTAGCGGA,0.184
11,CGTCGGGA,0.132
12,CTGGTCGC,-0.0371
13,ATTGGCAA,-0.0524
14,CGTCACTA,-0.0224
15,CCAATCAG,-0.173
16,AGCGGCAG,-0.0199
17,CCGTGTTA,-0.0507
18,ACCTTTAG,-0.194
19,ACTAAGGC,-0.223
20,ATGTACTA,0.0361
21,CCTGTTAA,-0.117
22,ATAGAACA,-0.161
23,AAAGGTCT,-0.0303
24,AGAGTGTA,-0.0753
25,CGGCCCAC,-0.287

row,Sequence,PBM E-score
1,GGCATCGA,-0.168
2,CCCTCCGC,-0.179
3,AATACACA,0.0581
4,ACTTCAGA,-0.00925
5,TAGCGCCA,-0.0831
6,CAACTGAG,0.00646
7,GACAACCA,-0.041
8,CGGTCAAC,0.148
9,AGACGCCG,0.0212
10,GAAGCCGA,-0.108
11,TAGGGATA,-0.108
12,CTGGTTAA,-0.00033
13,CCTCTTAG,-0.0365
14,ATGTGGAA,0.0482
15,GGAATAAC,0.154
16,CGGGAATC,-0.0629
17,GCTGGGCC,-0.217
18,TATTCACA,0.101
19,CACTCGCG,0.0771
20,TAGTTTGA,0.181
21,CTCGTACA,0.489
22,ACGTGTGA,-0.0987
